16 molecules from PubChem BioAssay AID2202238 (Ras Initiative Chemistry Research Team, Frederick National …, 2025) can be followed below.

This is one part of the list. These are further read-outs of the screen, such as a control signal, another cell line or another target. No call is given for them.

For this experiment, the target named is GTPase KRas (Homo sapiens) (UniProt P01116). Put plainly: Covalent labelling of cysteine mutants by fragments, read by mass spectrometry (AID 2202238). More on the design: protein at 5 µM with 500 µM competing thiol for 1.5 h. The following applies: KRAS G12D cysteine mutants, disulfide tethering, MALDI-TOF labeling, stronger effect = higher value, fragment at 500 µM.
UniProt P01116, sequence (P01116 whole entry, looked up, the tested form may be a part): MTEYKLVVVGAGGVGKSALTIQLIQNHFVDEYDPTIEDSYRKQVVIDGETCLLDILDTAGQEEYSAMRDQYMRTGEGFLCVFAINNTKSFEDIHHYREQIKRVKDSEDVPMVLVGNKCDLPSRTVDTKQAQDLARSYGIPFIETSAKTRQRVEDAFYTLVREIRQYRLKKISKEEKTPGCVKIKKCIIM

The mark [1] stands for this setting: measured here: G75C mutant labeling.
[2] abbreviates: measured here: H94C mutant labeling.
[3] abbreviates: measured here: I36C mutant labeling.
Where [4] appears, read: measured here: L120C mutant labeling.
The mark [5] stands for this setting: measured here: M67C mutant labeling.
The mark [6] stands for this setting: measured here: M72C mutant labeling.
Where [7] appears, read: measured here: N86C mutant labeling.
The mark [8] stands for this setting: measured here: P121C mutant labeling.
Where [9] appears, read: measured here: S122C mutant labeling.
Where [10] appears, read: measured here: S136C mutant labeling.
Where [11] appears, read: measured here: G60C mutant labeling.
Where [12] appears, read: measured here: N26C mutant labeling.

Turning to `Cc1cc2ncn(CC(O)CNC(=O)CCS)c2cc1C` (stereo not drawn), the percent labeling by setting is: under setting [1], 13.7%; under setting [2], 31.4%; under setting [3], 38.4%; under setting [4], 30.4%; under setting [5], 42.3%; under setting [6], 26%. For the same molecule, the percent labeling stood at 21.7% under setting [7], 42.7% under setting [8], 22.4% under setting [9] and 44.5% under setting [10].
In turn, `CN1Cc2cc(C(=O)NCCS)ccc2NC1=O` had a percent labeling under setting [11] of 21.7%; a percent labeling under setting [1] of 11.8%; a percent labeling under setting [2] of 16.8%; a percent labeling under setting [3] of 15.4%; a percent labeling under setting [4] of 22.4%; a percent labeling under setting [5] of 17.9%. For the same molecule, the percent labeling under setting [6] turned out to be 36.8%; the percent labeling under setting [12] is 42.9%; the percent labeling under setting [7] came out at 18.5%; the percent labeling under setting [8] turned out to be 15.3%; the percent labeling under setting [9] was 13.8%; the percent labeling under setting [10] amounted to 28.2%.
On to `Cc1nc(Cl)ccc1CNC(=O)CCS`, for which the percent labeling came to 14.8% under setting [1]; 30.9% under setting [2]; 36.6% under setting [3]; 22.9% under setting [4]; 34.3% under setting [5]; 24.2% under setting [6]. The molecule further registered a percent labeling under setting [7] of 22.5%, a percent labeling under setting [8] of 36.3%, a percent labeling under setting [9] of 35.8% and a percent labeling under setting [10] of 47.9%.
Turning to `O=C(CCS)Nc1nnc(CC2CCCC2)s1`, the percent labeling runs as follows: under setting [1], 15.1%; under setting [2], 16.7%; under setting [3], 16.6%; under setting [4], 11.6%; under setting [5], 18.9%; under setting [6], 54.6%. Besides, the percent labeling reads like this: under setting [7], 11.8%; under setting [8], 20.2%; under setting [9], 14.3%; under setting [10], 26.6%.
In the case of `O=C(CCS)Nc1cccc2c1CN(c1ccccn1)C2`, the percent labeling runs as follows: under setting [1], 0%; under setting [2], 8%; under setting [3], 16.8%; under setting [4], 7.8%; under setting [5], 10.2%; under setting [6], 3.9%. Besides, the percent labeling runs as follows: under setting [7], 0%; under setting [8], 6.7%; under setting [9], 6.5%; under setting [10], 16.4%.
For the molecule `Cc1ncsc1C(=O)N1CCCN(C(=O)CCS)CC1`, the percent labeling worked out at 8.4% under setting [1]; 35.6% under setting [2]; 39.4% under setting [3]; 24% under setting [4]; 44.3% under setting [5]; 17.1% under setting [6]. For the same molecule, the percent labeling is, setting by setting: under setting [7], 29.8%; under setting [8], 32.1%; under setting [9], 29.4%; under setting [10], 54.4%.
For the molecule `COCCn1nnc2c1CCN(C(=O)CCS)C2`, the percent labeling reads like this: under setting [1], 8.3%; under setting [2], 25.9%; under setting [3], 28.4%; under setting [4], 26.1%; under setting [5], 30.6%; under setting [6], 14.8%. Also, the percent labeling was determined as 15.2% under setting [7], 28.5% under setting [8], 30.2% under setting [9] and 46.6% under setting [10].
In the case of `CN1CC(C(=O)NCCS)c2ccccc2C1=O` (stereo not drawn), the percent labeling runs as follows: under setting [11], 26.1%; under setting [1], 6.4%; under setting [2], 24.7%; under setting [3], 17.6%; under setting [4], 47.3%; under setting [5], 27.4%. For the same molecule, the percent labeling by setting is: under setting [6], 12.2%; under setting [12], 28.2%; under setting [7], 10%; under setting [8], 26.4%; under setting [9], 19.2%; under setting [10], 41%.
The molecule `NC(=O)C1CCN(c2ncccc2CNC(=O)CCS)CC1` came in with a percent labeling under setting [1] of 5.9%; a percent labeling under setting [2] of 30.3%; a percent labeling under setting [3] of 25.3%; a percent labeling under setting [4] of 25.1%; a percent labeling under setting [5] of 36.7%; a percent labeling under setting [6] of 8.3%. Besides, the percent labeling runs as follows: under setting [7], 10.7%; under setting [8], 22.3%; under setting [9], 22.1%; under setting [10], 42.3%.
For `O=C(CN1CCN(C(=O)CCS)CC1)Nc1ccccc1`, the percent labeling came to 12.1% under setting [1]; 29.3% under setting [2]; 33.2% under setting [3]; 29.5% under setting [4]; 65.7% under setting [5]; 19.4% under setting [6]. For the same molecule, the percent labeling under setting [7] amounted to 24.3%, the percent labeling under setting [8] was determined as 34.2%, the percent labeling under setting [9] was found to be 33% and the percent labeling under setting [10] was 46.7%.
With `COC(=O)c1ccc(CN(C)C(=O)CCS)o1`, the percent labeling runs as follows: under setting [1], 14.1%; under setting [2], 29.9%; under setting [3], 35.8%; under setting [4], 38.8%; under setting [5], 35%; under setting [6], 21.3%. The percent labeling is, setting by setting: under setting [7], 26.2%; under setting [8], 33.7%; under setting [9], 37%; under setting [10], 54.4%.
`O=C(CN1CCC(C(F)(F)F)CC1)NCCS`: the percent labeling under setting [11] stood at 39.8%; the percent labeling under setting [1] worked out at 20.9%; the percent labeling under setting [2] stood at 39.7%; the percent labeling under setting [3] was 27.5%; the percent labeling under setting [4] was 57.1%; the percent labeling under setting [5] stood at 35.3%. The percent labeling under setting [6] was 26.5%; the percent labeling under setting [12] came out at 49.2%; the percent labeling under setting [7] is 28.9%; the percent labeling under setting [8] amounted to 37.3%; the percent labeling under setting [9] is 33.7%; the percent labeling under setting [10] amounted to 49.4%.
With `O=C(NCCS)C1=NN(c2ccc(S(=O)(=O)O)cc2)C(=O)C1`, the percent labeling is, setting by setting: under setting [1], 16%; under setting [2], 14.5%; under setting [3], 14.3%; under setting [4], 40.1%; under setting [5], 12.1%; under setting [6], 23.3%. The same molecule displayed a percent labeling under setting [7] of 16.7%, a percent labeling under setting [8] of 17.2%, a percent labeling under setting [9] of 32.9% and a percent labeling under setting [10] of 25.8%.
Take `Cc1nc(CN2CCC(CNC(=O)CCS)CC2)cs1`: the percent labeling runs as follows: under setting [1], 11.8%; under setting [2], 39%; under setting [3], 51.5%; under setting [4], 30.3%; under setting [5], 47.5%; under setting [6], 20.7%. Besides, the percent labeling stood at 20.6% under setting [7], 30.9% under setting [8], 33.2% under setting [9] and 47.9% under setting [10].
Take `O=C(CCS)NCC(=O)Nc1ccc(F)cc1`: the percent labeling came to 8.1% under setting [1]; 15.8% under setting [2]; 22.8% under setting [3]; 21% under setting [4]; 18.9% under setting [5]; 19.1% under setting [6]. Moreover, the percent labeling reads like this: under setting [7], 19%; under setting [8], 21.4%; under setting [9], 20.4%; under setting [10], 26.3%.
As for `Cn1ccc(C(=O)NC2(C(=O)NCCS)CCCCCC2)cc1=O`, the percent labeling reads like this: under setting [11], 37.1%; under setting [1], 11.9%; under setting [2], 32.5%; under setting [3], 23.4%; under setting [4], 35.8%; under setting [5], 24.7%. The percent labeling is, setting by setting: under setting [6], 20.1%; under setting [12], 29%; under setting [7], 25.2%; under setting [8], 25.1%; under setting [9], 22.6%; under setting [10], 42.5%.
